From PubChem BioAssay (NCI)
Where “and” joins values, the source holds several entries; their conditions need not be identical. Equal entries are not always repeated.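 The compound was tested at five concentrations on cells cultured in 96-well plates, with a 48-hour exposure period. GI50 marks 50% less growth. The concentration for full growth arrest is given as TGI.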

These compounds were tested on NCI-H322M lung (assay: inhibition of tumour cell growth, NCI panel, 48 h).
In the case of `O=C(CC1(O)C(=O)N(Cc2ccccc2)c2ccccc21)c1ccc(C(=O)NCC2CCC3(CC2)OOC2(CCCCC2)OO3)cc1` (centres undefined), the GI50 is reported as 8.65 µM and the TGI is reported as over 100 µM. Compound `CCOC(=O)c1c(C)n(-c2ccc(Cl)cc2)c2c1cc(O)c1[nH]c3c(c12)CCCC3` has a TGI of over 100 µM. In the case of `C=C(C)C1Cc2c(c3ccccc3n(C)c2=O)O1` (centres undefined), the TGI is reported as over 100 µM. In the case of `COc1ccc(OC)c(N(CN2C(=O)CCC2C(=O)O)C(C)=O)c1` (centres undefined), the TGI is reported as over 100 µM. Compound `Oc1ccc(C(c2ccc(O)cc2)c2ccc(Br)cn2)cc1` has a GI50 of 0.249 µM and a TGI of 0.661 µM. Compound `c1ccc(CCc2cccnc2)nc1` has a TGI of over 100 µM. `CC1(c2nc3ccccc3[nH]2)CCC(C(=O)O)C(C)(C)O1` (centres undefined) was tested, and the TGI was over 100 µM. With `O=C(NC1CCN(Cc2ccccc2)CC1)c1ccc(I)cc1` the TGI was over 100 µM. `CC1(C)CC(=O)C(/C(=N/NC(=S)NN)C(=O)Nc2nc3ccc([N+](=O)[O-])cc3s2)C(=O)C1` gave a TGI of over 100 µM. `CN1C(c2ccccc2)CC(=O)C(N)C1c1ccccc1` (centres undefined) gave a TGI of over 100 µM. `Cc1ccc(NC(=O)c2cc(S(=O)(=O)Nc3n[nH]c(=O)[nH]3)c(SSc3cc(Cl)c(C(=O)Nc4ccc(C)cc4)cc3S(=O)(=O)Nc3n[nH]c(=O)[nH]3)cc2Cl)cc1` was tested, and the TGI was over 100 µM. With `COC(=O)C1=C(OC(=O)/C(=C/c2ccc(Cl)cc2)c2ccc(Cl)cc2)C(C(=O)OC)[C@]2(O)[C@@H](C(=O)OC)[C@H]1C[C@@H](c1ccccc1)[C@@H]2C(=O)OC` (some centres undefined) the TGI was over 100 µM. Work on `CC(=O)OCCOCNC(=S)N/N=C/c1cc(Br)cs1` yielded a TGI of over 100 µM. In the case of `O=C1OC(C(O)CO)C(O)=C1O` (centres undefined), the GI50 is reported as 3760 µM and > 5940 µM and the TGI is reported as over 10000 µM. `Nc1nc(Nc2ccccc2SSc2ccccc2Nc2nc(N)nc(C(Cl)(Cl)Cl)n2)nc(C(Cl)(Cl)Cl)n1` was tested, and the GI50 was 19 µM and the TGI was over 100 µM. In the case of `O=C(Nc1cccc(-n2cc(-c3ccncc3)c(-c3cc(O)cc(Cl)c3)n2)c1)c1cc(C(F)(F)F)cc(C(F)(F)F)c1`, the GI50 is reported as 7.92 µM and the TGI is reported as over 100 µM. For `O=C1Nc2ccccc2N=CC1NC(=O)C(c1ccccc1)c1ccccc1` (centres undefined), the TGI was over 100 µM. `CC(C)C(C(=O)O)N1C(=O)c2ccccc2C1=O` (centres undefined) was tested, and the TGI was over 100 µM. Compound `O=[N+]([O-])c1ccc(C(=S)Nc2ccccc2)o1` has a TGI of 13.3 µM. Compound `COc1ccc(/C=C(\C#N)n2nnc3c(F)cccc32)cc1` has a GI50 of 0.874 µM and a TGI of over 100 µM. In the case of `N#Cc1c2c(c(N)oc1=O)C(c1ccccc1)CC(=O)N2` (centres undefined), the TGI is reported as over 100 µM. In the case of `O=C(/C=C/c1ccccc1)Oc1ccc(C(=O)/C=C/c2ccc(Cl)cc2)cc1`, the TGI is reported as over 100 µM. In the case of `COC1C(N)C(OC2C(Oc3cccc4c(O)c5c(=O)oc6ccc(C)c7c(=O)oc(c34)c5c67)OC(C)C(O)C2(C)O)OC(C)C1O` (centres undefined), the TGI is reported as 1.93 µM.
